Source: the supplement of paper PMC7125110
± gives the standard error. This sample is rich in variants without activity.

B1: glmS ribozyme (parent)
chain: AUAAAAGCGCCAGAACUACAGAAAUGUAGUUGACGAGGAGGAGGUUUAUCGAAUUUUCGGCGGAUGCCUCCAAA

Tests used:
Details in all cases: with glucosamine-6-phosphate
[1] = variants of: B1; assay: self-cleavage kobs at 40 uM GlcN6P; higher = faster cleavage; RNA array
Procedure, shortened: (§1)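 Barcoded glmS ribozyme variants on sequenced MiSeq chips were transcribed in situ by E. coli RNA polymerase and tracked through a hybridised Cy3 probe at 37 °C. Glucosamine-6-phosphate (40 μM to 10 mM) in HEPES/KCl/Mg(OAc)2 buffer was flowed in, and tiles were imaged over ~14 h. Signals were normalised to baseline and to non-cleaving reference variants; per-tile medians were fit to one- or two-exponential decays to give kobs. kcat and KM came from weighted Michaelis–Menten fits across concentrations.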

[2] = variants of: B1; assay: self-cleavage kobs at 640 uM GlcN6P; higher = faster cleavage; RNA array
Procedure, shortened: as §1

[3] = variants of: B1; assay: self-cleavage kobs at 160 uM GlcN6P; higher = faster cleavage; RNA array
Procedure, shortened: as §1

[4] = variants of: B1; assay: self-cleavage kobs at 10000 uM GlcN6P; higher = faster cleavage; RNA array
Procedure, shortened: as §1

[5] = variants of: B1; assay: self-cleavage kobs at 2500 uM GlcN6P; higher = faster cleavage; RNA array
Procedure, shortened: as §1

Row | Variant | self-cleavage kobs at 40 uM GlcN6P [1] [s⁻¹] | self-cleavage kobs at 640 uM GlcN6P [2] [s⁻¹] | self-cleavage kobs at 160 uM GlcN6P [3] [s⁻¹] | self-cleavage kobs at 10000 uM GlcN6P [4] [s⁻¹] | self-cleavage kobs at 2500 uM GlcN6P [5] [s⁻¹]
1 | AUAAAGGCGCCAGAACUACAGAAAUGUAGUUGACGAGGGGGAGGUUUAUCGAAUUUUCGUCGGUUGCCUCCAAA [A6G A39G G60U A64U] | < 1e-05 | – | – | – | –
2 | AUAAAGGCGCCCGAACUACAGAAAUGUAGUUGACGAGGAGGAGGUUUAUCGAAUUUUCGGCGGAUGCCUCAAAA [A6G A12C C71A] | < 1e-05 | – | – | – | –
3 | AUAAAGGCGCCAGAUCUACAGAAAUGUAGUCGACGAGGAGGAGUUUUAUCGAAUUUUCGGCGGAUGCCUCAAAA [A6G A15U U31C G44U C71A] | < 1e-05 | – | – | – | –
4 | AUAAAGGCGCCAGAACUACAGAAAUGUAGUUGACGAGGAGGAGGUUUAUCGAAUUUUCGGCGGUUACCUCCAAA [A6G A64U G66A] | < 1e-05 | < 1e-05 | < 1e-05 | < 1e-05 | –
5 | AUAAAGGUGCCAGAACUACAGAAAUGUAGUUGACGAGGAGGAGGUUUAUCGAAGUUUCGGCGGAUGCGUCCAAA [A6G C8U U54G C68G] | 0.000149 ± 5.2e-05 | 0.000705 ± 0.00028 | – | 7.88e-05 ± 2.2e-05 | –
6 | AUAAAGGCGUCAGAACUACAGAAAUGUAGUUGACGAGGUGGAGGUUUAUCGAAUUUUCGGCGGAUGCCUCCAAA [A6G C10U A39U] | < 1e-05 | – | < 1e-05 | < 1e-05 | < 1e-05
7 | AUAAAGGCGCCAGAACUACAGAAAUGUAGUUGACGAGGAGGAGGUUUAUCGACUUUUCGGCGGAUGCCUCCAAA [A6G A53C] | < 1e-05 | – | < 1e-05 | – | –
8 | AUAAAGGCGCCAGAACUACAGAAAUGUAGUUGACGAGGAGGAGGUUUAUCGAUUUUUCGGCGGAUGCCUCCAAA [A6G A53U] | < 1e-05 | – | – | – | –
9 | AUAAACGCGCCAGAACUACAGAAAUGUAGUUGACGAGGAGGAGGUUUAUCGAAUUAUGGGCGGAUGCCUCCAAA [A6C U56A C58G] | < 1e-05 | – | – | < 1e-05 | –
10 | AUAAAGGCGCCAGCACUACAGAAAUGUAGUUGACGAGGAGGAGGUUUAUCGAAUUUUCGGCGGAUGCCUCAAAA [A6G A14C C71A] | < 1e-05 | – | – | – | –
11 | AUAAAGGCGCCAGAACUACAGAAAUGUAGUUGACGGGGAGGAGGUUUAUCGAAUUUUCGGCGGAUGCCUCCAAA [A6G A36G] | < 1e-05 | < 1e-05 | – | – | –
12 | AUAAAGGCGCCGGAACUACAGAAAUGUAGUUGACGAGGCGGAGGUUUAUCGAAUUCUCGGCGGAUGCCUCCAAA [A6G A12G A39C U56C] | < 1e-05 | – | – | < 1e-05 | < 1e-05
13 | AUAAAGGUGCCAGAACUACAGAAAUGUAGUUGACCAGGAGGAGGUUUGUCGAAUUUUCGGCGGAUGCCUCCAAA [A6G C8U G35C A48G] | < 1e-05 | – | – | < 1e-05 | –
14 | AUAAACGCGCCAGAACUACAGAAAUGUAGUUGACGAGGAGGAGGUUUAACGAAUUUUCGGCGGAUGCCUCAAAA [A6C U49A C71A] | < 1e-05 | – | – | < 1e-05 | –
15 | AUAAAGGCGCCGGAACUACAGAAAUGUAGUUGACGAGGAGGAGGUUUAUCGAAUUUUCGGCGGAUGCCUCCAAA [A6G A12G] | < 1e-05 | – | < 1e-05 | – | –
16 | AUAAAGGCGCCAGAACUACAGAAAUGUAGUUGACGAGGGGGAGGUUUAUCGCAUUUUCGGCGGAUGCCUCCAAA [A6G A39G A52C] | < 1e-05 | – | – | – | –
17 | AUAAACGCGCCAGAACUACAGAAAUGUAGUUGACGAGGAGGAGGUUUAUCGAAUUUUCGGCGUAUGCCUCCAAA [A6C G63U] | < 1e-05 | < 1e-05 | < 1e-05 | – | < 1e-05
18 | AUAAACGCGCCAGAACUACAGAAAUGUAGUUGACGAGGAGGAGGUUUAUCGAAUUUUCGUCGGAUGCCUCCAAA [A6C G60U] | < 1e-05 | < 1e-05 | < 1e-05 | < 1e-05 | < 1e-05

Row | Variant | self-cleavage kobs at 40 uM GlcN6P [1] [s⁻¹] | self-cleavage kobs at 640 uM GlcN6P [2] [s⁻¹] | self-cleavage kobs at 160 uM GlcN6P [3] [s⁻¹] | self-cleavage kobs at 10000 uM GlcN6P [4] [s⁻¹] | self-cleavage kobs at 2500 uM GlcN6P [5] [s⁻¹]
19 | AUAAAGGGGCCAGAAGUACAGAAAUGUAGUCGACGACGAGGAGGUUUAUCGAAUUUUCGGCGGAUGCCUCCAAA [A6G C8G C16G U31C G37C] | < 1e-05 | – | – | – | –
20 | AUAAAGGCGCCAGAGCUACAGAAAUGUAGUUGACGAGGAGGAGGUUUAUCGAAUUUUCGGCGGAUGCCUCUAAA [A6G A15G C71U] | < 1e-05 | – | – | – | –
21 | AUAAAGGCGCCAGAACUACAGAAAUGUAGUUGACGAGGAGGCGGUUUAUCGAAUUUUCGGCGGAUGCCUCUAAA [A6G A42C C71U] | < 1e-05 | < 1e-05 | – | – | –
22 | AUAAACGCGCCAGAACUACAGAAAUGUAGUUGACGAGGAGGAGGCUUAUCGAAUUUUCGGCGAAUGCCUCCAAA [A6C U45C G63A] | < 1e-05 | – | – | – | < 1e-05
23 | AUAAAGGCGCCAGAACUACAGAAAUGUAGUUGACGAGGAGGGGGUUUAUCAUAUUUUCGGCGGAUGCCUCCAAA [A6G A42G G51A A52U] | < 1e-05 | – | – | < 1e-05 | –
24 | AUAAAGGCGCCCGAACUACAGAAAUGUAGUUGACGAGGACGAGUUUUAUCGAAUUUUCGGCGGAUGCCUCCAAA [A6G A12C G40C G44U] | < 1e-05 | < 1e-05 | – | < 1e-05 | –
25 | AUAAACGCGCCAGAACUACAGAAAUGUAGUUGACGAGGAGGAGGUUUAUCGAAUUCUCGGCGGAUGCCUACAAA [A6C U56C C70A] | < 1e-05 | – | – | < 1e-05 | –
26 | AUAAAGGGGCCAUAACUACAGAAAUGUAGUUGACGAGGAGGAGGUUUAUCGAAUUUUCGGCGGAUGCCUCCAAA [A6G C8G G13U] | < 1e-05 | – | – | – | –
27 | AUAAAGGCGCCAGAACUACAGAAAUGUAGUUGACGCGGAGGAGGUUUAUCGAAUUUUCGGCGGAUGCCUCUAAA [A6G A36C C71U] | < 1e-05 | – | – | < 1e-05 | –
28 | AUAAAGGCGACAAAACUACAGAAAUGUAGUUGACGAGGAGGAGGUUUAUCGAAUUUUCGGCAGAAGCCUCCAAA [A6G C10A G13A G62A U65A] | < 1e-05 | – | – | – | –
29 | AUAAACGCGCCAGAACUACAGAAAUGUAGUGGACGAGGAGGAGGUUUAUCGAAUUUUCGGCGGAUGCCUCCAAA [A6C U31G] | < 1e-05 | – | – | 1.74e-05 ± 5.6e-06 | –
30 | AUAAAGGCGCCGAAACUACAGAAAUGUAGUUGACGAGGAGGAGGUUUAUUGAAUUUUCGGCGGAUGCCUCCAAA [A6G A12G G13A C50U] | < 1e-05 | – | – | < 1e-05 | < 1e-05
31 | AUAAAGGCGCCAGAUGUACAGAAAUGUAGUUGACGAGGAGGAGGUUUAUCGAGUUUUCGGGGAAUGCCUCCAAA [A6G A15U C16G A53G C61G G63A] | < 1e-05 | – | – | – | –
32 | AUAAAGGCGCCAGUACUACAGAAAUGUACUUGACAAGGAGGAGGUUUAUCGAAUUUUCGCCGGAUGCCUCCAAA [A6G A14U G29C G35A G60C] | < 1e-05 | < 1e-05 | – | – | < 1e-05
33 | AUAAAGGCGCCAGAGCUACAGAAAUGUAGUUGACGAGGAGGAGAUUUAUCGAAUUUUCGGCGGAUGCCUCCAAA [A6G A15G G44A] | < 1e-05 | < 1e-05 | – | < 1e-05 | < 1e-05
34 | AUAAACGCGCCAGAACUACAGAAAUGUAGUUGACGAGGAGGAGGUUUAUCGAAUCUUCGGCGGAUGCCUCCAAA [A6C U55C] | < 1e-05 | – | – | – | –
35 | AUAAACGCGCCAGAACUACAGAAAUGUAGUUGACGAGGAGGAGGUUUAUCGAAUAUUCGGCGGAUGCCUCCAAA [A6C U55A] | < 1e-05 | – | < 1e-05 | 7.27e-05 ± 1.2e-05 | 7.01e-05 ± 1.6e-05
36 | AUAAAGGCGCCAGAACUACAGAAAUGUAGUUGACGCGCAGGAGGUAUAUCGAAUCUUCGGCGGAUGCCUCCAAA [A6G A36C G38C U46A U55C] | < 1e-05 | – | – | – | –
